Results from PubChem BioAssay AID488969 (Vanderbilt High Throughput Screening Facility, 2010).
The full ranking holds about 110,000 compounds; the median of “z-score” is about -0.1, and the highest 2% start at about 2. This is one part of the list. The source made the active and inactive calls.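 How the source made its calls: active means z-score in the third read window above 3 or below -3; inactive means the rest.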

The molecules below were run against Metabotropic glutamate receptor 8 (Rattus norvegicus) (UniProt P70579) (assay: rat mGluR8 modulators via GIRK flux, primary screen, cell-based, thallium flux, HTS (AID 488969)). Conditions: HEK293 rat mGluR8, GIRK (G protein-gated inwardly rectifying potassium channel) thallium flux, FluoZin2; at 10 µM; stronger effect = higher value; submaximal glutamate (EC20) added with thallium.
Sequence of UniProt P70579 (P70579 whole entry, looked up): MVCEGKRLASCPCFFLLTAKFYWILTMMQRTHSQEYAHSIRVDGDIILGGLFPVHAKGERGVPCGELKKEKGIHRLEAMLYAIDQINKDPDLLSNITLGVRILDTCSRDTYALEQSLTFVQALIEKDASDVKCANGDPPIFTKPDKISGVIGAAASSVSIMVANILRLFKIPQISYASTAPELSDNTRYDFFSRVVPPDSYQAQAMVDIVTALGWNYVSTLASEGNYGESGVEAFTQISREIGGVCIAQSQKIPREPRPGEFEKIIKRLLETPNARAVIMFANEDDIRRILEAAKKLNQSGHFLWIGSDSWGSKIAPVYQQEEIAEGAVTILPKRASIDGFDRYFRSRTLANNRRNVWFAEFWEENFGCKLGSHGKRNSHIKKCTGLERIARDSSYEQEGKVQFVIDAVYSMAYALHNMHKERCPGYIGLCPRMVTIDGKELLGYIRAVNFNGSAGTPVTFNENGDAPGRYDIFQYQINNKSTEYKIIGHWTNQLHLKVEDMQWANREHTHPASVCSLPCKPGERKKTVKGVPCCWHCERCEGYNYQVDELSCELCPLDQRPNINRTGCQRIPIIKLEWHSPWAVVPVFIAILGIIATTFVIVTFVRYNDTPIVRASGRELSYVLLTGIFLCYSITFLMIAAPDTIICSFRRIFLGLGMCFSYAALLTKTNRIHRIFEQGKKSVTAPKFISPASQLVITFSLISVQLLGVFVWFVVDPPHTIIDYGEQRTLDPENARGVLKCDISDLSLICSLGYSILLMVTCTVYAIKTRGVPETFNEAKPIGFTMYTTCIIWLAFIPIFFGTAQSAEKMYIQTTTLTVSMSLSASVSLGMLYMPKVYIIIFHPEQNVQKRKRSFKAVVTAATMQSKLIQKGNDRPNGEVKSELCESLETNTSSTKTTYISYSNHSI

Compound | z-score
Cn1cccc1C(C(=O)NC1CCCCC1)N(C(=O)Cc1cccs1)c1ccc2c(c1)OCO2 (configuration not stated) | -0.182
Cc1ccc(C(=O)NCC(=O)Nc2cccc(C(F)(F)F)c2)cc1 | -0.208
CC(Oc1ccc(Cl)cc1Cl)C(=O)Nc1ccc(S(=O)(=O)Nc2cnc3ccccc3n2)cc1 (configuration not stated) | -0.944
COC(=O)c1sccc1NC(=S)Nc1ccc(F)cc1 | -0.00972
Cc1ccc(NC(=O)c2ccc(OC(F)(F)F)cc2)cc1S(=O)(=O)N(C)C | -0.154
COc1cc(CNCC(O)c2ccccc2)ccc1OCc1ccc(Cl)nc1 (configuration not stated) | 1.26
CCOc1cc2[nH]c(=O)n(CC3CCC(C(=O)NCCCOC)CC3)c(=O)c2cc1OCC (configuration not stated) | -0.875
O=C(COC(=O)c1ccccc1Nc1ccc(SC(F)F)cc1)NCc1ccco1 | -0.0503
O=S1(=O)C=C(SCc2ccccc2)Nc2ccccc21 | -0.11
N#Cc1ccccc1Sc1ccccc1C(=O)Nc1ccccc1 | 0.16
O=C(/C=C/c1ccccc1)c1ccc2c3c(cccc13)CC2 | 0.0557
CCCc1ccc(-c2cc(C(=O)NN3CCOCC3)c3ccccc3n2)cc1 | -0.0753
O=C(Nc1sc2c(c1-c1nc3ccccc3[nH]1)CCCC2)C1CCCC1 | 0.0189
CCOC(=O)c1ccc(NS(=O)(=O)c2c(C)n(C)c(=O)n(C)c2=O)cc1 | -0.176
COc1ccccc1-n1c2nc3ccccc3nc2c2c(=O)n(-c3cc(C)cc(C)c3)cnc21 | 0.323
Cc1ccc(C(=O)N/C(=C\c2ccccc2)C(=O)NCC2CCCO2)cc1 (configuration not stated) | 0.0577
Cc1ccccc1CS(=O)(=O)Cc1ccc(C(=O)NCc2cccnc2)o1 | -0.679
COc1ccc(-c2cnnn2-c2ccc(NC(=O)c3ccc(S(=O)(=O)N4CCCCC4)cc3)cc2)cc1OC | -0.942
COC(=O)CSc1nc(NC(C)=O)nc(C)c1Br | -0.199
COc1cc(C(=O)O)cc(NC(=O)c2cccs2)c1OC | -0.536
O=C(NCCN1CCOCC1)C1CCC(CNS(=O)(=O)c2ccc(Cl)cc2)CC1 (configuration not stated) | -0.0938
CCN1CNC(=S)N(c2cccc(C)c2C)C1 | -1.75
CN1C2C=C(N(CCc3c[nH]c4ccccc34)C(=O)c3ccc(Cl)cc3)CC1CC2 (configuration not stated) | 0.11

Compound | z-score
N#Cc1ccc(N2CCc3ccccc3C2)c([N+](=O)[O-])c1 | 0.175
Cc1cccc(NCc2nc(-c3ccccc3)no2)c1 | -0.266
CC(=O)Nc1ccc(NC(=O)C(C)OC(=O)CN(C)S(=O)(=O)c2ccc(Cl)cc2)cc1 (configuration not stated) | -0.0798
COc1ccccc1N(CC(=O)Nc1cc(C)on1)S(=O)(=O)c1ccc(Cl)cc1 | 0.0709
Cc1cccc(C)c1NC(=O)COC(=O)CSc1nnc(N)s1 | 0.178
CCOc1cc(/C=N/O)ccc1OCc1ccc(F)cc1 | 0.601
C/C(=C\C(=O)c1ccc(F)cc1)NCc1ccc2c(c1)OCO2 | -0.459
O=C(CCC(=O)OCC(=O)c1ccccc1)NC1CCCCC1 | -0.0167
O=C(NCCCN1CCCC1=O)c1ccc2c(c1)OCO2 | 0.0161
COc1ccc(CCNC(=O)CNS(=O)(=O)c2ccc(Br)s2)cc1OC | -0.0435
O=C(/C=C/c1ccc(OC(F)F)cc1)OCC(=O)N1CCN(C(=O)c2ccco2)CC1 | 0.082
CCc1ccc(NC(=O)N(CCCOC(C)C)C2CCN(C(C)=O)CC2)cc1 | 0.807
O=C1CC(c2ccco2)CC(O)=C1C=Nc1ccc(Br)cc1 (configuration not stated) | -0.573
Cc1csc(NC(=O)C(NS(=O)(=O)c2ccc(Br)s2)c2ccccc2)n1 (configuration not stated) | -0.0835
COC(=O)c1cn(-c2ccccc2)c(C)c1C(=O)OC | -0.11
Cc1ccc2nc3n(c(=O)c2c1)CCCCC3 | 1.65
CCOC(=O)CSCc1cn2cc(Cl)ccc2n1 | -0.142
Cc1ccc(NS(=O)(=O)c2ccc(N3C(=O)CCC3=O)cc2)cc1 | 0.0614
Cn1c2ccccc2c2c(C(=O)NCC3CCCO3)cn(C3CCCC3)c(=O)c21 (configuration not stated) | -0.721
CCn1c(CSc2nc3ccccc3s2)nnc1SCC(=O)c1ccc(O)c(O)c1 | 0.00479
CCn1cc(Cl)c(C(=O)N2N=C3/C(=C/c4cccs4)CCCC3C2c2cccs2)n1 (configuration not stated) | -0.241
COc1ccc(/C=C2\N=C3CCCCCN3C2=O)cc1OC | -0.565
Cc1ccc(CNC(=O)Cn2ccc3ccccc3c2=O)o1 | 0.188

Compound | z-score
CC(C)CC(NC(=O)c1ccccc1)C(=O)OCC(=O)Nc1ccc(Br)cn1 (configuration not stated) | -0.0797
O=C(O)[C@H](Cc1ccccc1)N1C(=O)c2ccncc2C1=O | 0.139
N#C/C(=C\c1ccccc1Cl)C(=O)NC(=O)Oc1ccccc1 | -0.549
O=C(O)CCCNS(=O)(=O)c1ccccc1 | -0.277
CCOC(=O)C1(C)C=C(Nc2ccc(O)cc2)C(=O)N1c1ccc(O)cc1 (configuration not stated) | 0.153
CC(=O)c1cc2c(cc1NC(=O)CSc1nc3ccccc3o1)OCO2 | -0.795
COc1ccccc1N(CC(O)CN(c1ccccc1)S(C)(=O)=O)S(=O)(=O)c1ccccc1 (configuration not stated) | -0.251
COc1cc(/C=N/Nc2ncc(C(F)(F)F)cc2Cl)cc(OC)c1OC | -0.231
CN1CCC(NC(=O)c2cccs2)CC1 | -0.179
Cc1ccc(NC(=O)C/C(N)=N/O)cc1C | -0.153
COc1ccc(C2/C(=C(/O)c3ccccc3)C(=O)C(=O)N2CC(C)O)c(OC)c1 (configuration not stated) | 0.612
CC1CCCCN1S(=O)(=O)c1cccc2cccnc12 (configuration not stated) | 0.804
CC(C)OC(=O)/C(=C/c1cccnc1)NC(=O)c1ccccc1 | active: 3.22
CS/C(=N/S(=O)(=O)c1ccc(C)cc1)c1ccccc1 | -0.501
CC1CN=C(c2cccn2Cc2ccc(F)cc2Cl)O1 (configuration not stated) | 0.261
CC(C)(C)SCCNC(=O)CN(c1ccc(F)cc1)S(C)(=O)=O | -0.273
Cc1ccc(NC(=S)N2CCN(C)CC2)c(C)c1 | -0.125
CCCC(=O)Nc1sc2c(c1C(=O)OC)C(C(=O)OC)CC2 (configuration not stated) | -0.0731
COc1cc(NC(=O)CSc2ccc3c(c2)OCCO3)cc(OC)c1OC | -0.0209
C/C=C(\C)CN1CCN(c2cc(C)ccc2C)CC1 | -0.121
COc1ccc(NC(=S)NCC2CCCO2)c(OC)c1 (configuration not stated) | -0.211
COc1cccc(NC(=O)COc2ccc(C)cc2)c1 | active: 4.04
O=C(C1CCCN(S(=O)(=O)c2cccs2)C1)N1CCN(C2CCCCC2)CC1 (configuration not stated) | -0.311

Compound | z-score
C=CCSc1nnc2c(n1)OC=Nc1ccccc1-2 | -0.345
Cn1c(=O)c2c(nc(NC(Cc3ccccc3)C(=O)O)n2Cc2ccccc2)n(C)c1=O (configuration not stated) | 0.199
Cc1cc(C)cc(NC(=O)c2ccccc2CC[N+](=O)[O-])c1 | -0.944
C=CCn1c(SCc2ccc(C#N)cc2)nnc1-c1ccc(C)cc1 | -0.503
CCCCCn1c(=O)[nH]c2cc(C(=O)NCCN3CCOCC3)ccc2c1=O | 0.542
OC(COc1ccccc1)CN1CCOCC1 (configuration not stated) | -0.127
O=C(CSc1nc(Nc2ccccc2)nc(N2CCOCC2)n1)N1CCc2ccccc21 | 0.159
Cc1cc(C)nc(-n2cc(C(=O)c3cc(F)ccc3O)cn2)n1 | 0.0338
CCc1nc(-c2ccc(OC)c(OC)c2)cc2cc(OC)c(OC)cc12 | -0.0908
Cc1cc(=O)[nH]c(N/N=C/c2c(O)n(-c3ccccc3)c(=O)c3ccccc23)n1 | 0.0384
CNc1nc2c(c(=O)[nH]c(=O)n2C)n1CCOC | 1.64
CCOc1ccc(NC(=O)N(CCCN2CCOCC2)Cc2cccnc2)cc1 | 1.17
O=c1c2ccccc2nc(SCc2cc([N+](=O)[O-])cc3c2OCOC3)n1-c1ccccc1 | -0.0105
CC(C)CC(=O)Nc1nnc(SCC(=O)NCc2ccco2)s1 | -0.153
COc1ccc(C)cc1NC(=O)C1CCN(S(=O)(=O)c2cccc3cccnc23)CC1 | -0.688
COc1ccc(CCC(=O)N2CCCSC2=Nc2ccc(C(C)=O)cc2)cc1 | -0.331
O=C(COC(=O)c1cc(S(=O)(=O)NCc2ccccc2)ccc1O)NCc1ccccc1 | -0.115
Cc1ccc(S(=O)(=O)Oc2ccc(C(c3c(C)[nH][nH]c3=O)c3c(C)[nH][nH]c3=O)cc2)cc1 | 0.0509
CCCCn1c(=N)n(CC(=O)C(C)(C)C)c2ccccc21 | -0.41
O=c1c(O)c(-c2ccc3c(c2)OCO3)oc2ccccc12 | -0.981
C=CCn1c(SCn2nnc3ccccc3c2=O)nnc1-c1ccc(Br)cc1 | 0.482
Cc1c(Cl)cccc1NC(=O)CCC(=O)N/N=C/c1ccc[nH]1 | -0.389
CS(=O)(=O)N1N=C(c2ccco2)CC1c1ccc(Cl)cc1 (configuration not stated) | -0.15

Compound | z-score
Cc1ccc(S(=O)(=O)N2C(=O)CCC2C(=O)Nc2ccc3c(c2)OCCO3)cc1 (configuration not stated) | -0.271
Cc1ccc(NC(=O)Cc2nc(CSc3nnc(-c4ccc5c(c4)OCO5)o3)cs2)cc1 | -1.48
Cc1cc(=O)oc(C)c1C(=O)O | -0.065
c1ccc(-c2noc(-c3ccncc3)n2)nc1 | -0.0501
CCC(C)c1ccc(NC(=O)CSc2nncn2N)cc1 (configuration not stated) | 0.0816
COc1ccccc1CN(C(=O)Cc1cccs1)C(C(=O)NC1CCCC1)c1ccncc1 (configuration not stated) | -0.243
CCCCn1c(-c2nn(C)c(C)c2Cl)n[nH]c1=S | 0.951
Cc1ccc2cc(C)c3nnc(SCC(=O)Nc4nc5c(s4)CCCC5)n3c2c1 | -0.93
CCCCCCCn1c(=N)n(CC(=O)c2ccco2)c2ccccc21 | active: 4.65
CN1C(=O)CC(N2CCN(Cc3ccc(Cl)cc3)CC2)C1=O (configuration not stated) | -0.141
CCOP(=O)(OCC)C(NC(=O)Nc1ccc(Cl)c(Cl)c1)C(N)=O (configuration not stated) | -0.0318
Cc1ccc(N2C(=O)CC(Sc3ncn[nH]3)C2=O)cc1C (configuration not stated) | -0.22
CCCn1nc(C(=O)Nc2cc(C(=O)OC)ccc2C)c2ccccc2c1=O | 0.256
CCNC(=S)NCc1ccc2c(c1)OCO2 | -0.0745
CCCCc1nc(NCC2CCCO2)c(C#N)c2c1COC(C)(C)C2 (configuration not stated) | -0.551
CCS(=O)(=O)Nc1ccc(C(=O)OC)cc1 | 0.0196
O=c1c(Cc2ccccc2)c(O)nc2n1CCCS2 | -0.34
C=CCn1c(C(CCC(C)C)CC(C)(C)O)n[nH]c1=S (configuration not stated) | 0.183
Cc1ccc(C)n1-c1ccccc1N | -0.208
Cc1nn(Cc2cccc(C(=O)NC(C)c3ccc(C(C)(C)C)cc3)c2)c(C)c1[N+](=O)[O-] (configuration not stated) | -0.0799
